Experimental data published in PMC11207571, “Applicability of MDR1 Overexpressing Abcb1KO-MDCKII Cell Lines for Investigating In Vitro Species Differences and Brain Penetration Prediction” (Pharmaceutics, 2024).

Tests used:
mouse Mdr1a [1] = target: T1, mouse Mdr1a (Mus musculus, UniProt P21447); experiment: Bidirectional transport assay, efflux ratio in Abcb1KO-MDCKII mMDR1 cells; conditions: pH 7.4
Protocol: (§1) Eluent A consisted of 0.1% formic acid in water, eluent B consisted of 0.1% formic acid in acetonitrile. Then, 10 µL samples were injected into the HPLC-MS/MS system. Mass spectrometric detection was performed in SRM mode, and ion transitions for each analyte were optimized during method development. Samples were analyzed in pools, with each pool containing three to four analytes.

[2] = Bidirectional transport assay, efflux ratio in Abcb1KO-MDCKII-Mock control cells; conditions: dog, MDCK, pH 7.4
Protocol: as §1

rat Mdr1a [3] = target: T2, rat Mdr1a (Rattus norvegicus, UniProt Q6PSM0); experiment: Bidirectional transport assay, efflux ratio in Abcb1KO-MDCKII rMDR1 cells; conditions: pH 7.4
T2 sequence (Q6PSM0 1-1272): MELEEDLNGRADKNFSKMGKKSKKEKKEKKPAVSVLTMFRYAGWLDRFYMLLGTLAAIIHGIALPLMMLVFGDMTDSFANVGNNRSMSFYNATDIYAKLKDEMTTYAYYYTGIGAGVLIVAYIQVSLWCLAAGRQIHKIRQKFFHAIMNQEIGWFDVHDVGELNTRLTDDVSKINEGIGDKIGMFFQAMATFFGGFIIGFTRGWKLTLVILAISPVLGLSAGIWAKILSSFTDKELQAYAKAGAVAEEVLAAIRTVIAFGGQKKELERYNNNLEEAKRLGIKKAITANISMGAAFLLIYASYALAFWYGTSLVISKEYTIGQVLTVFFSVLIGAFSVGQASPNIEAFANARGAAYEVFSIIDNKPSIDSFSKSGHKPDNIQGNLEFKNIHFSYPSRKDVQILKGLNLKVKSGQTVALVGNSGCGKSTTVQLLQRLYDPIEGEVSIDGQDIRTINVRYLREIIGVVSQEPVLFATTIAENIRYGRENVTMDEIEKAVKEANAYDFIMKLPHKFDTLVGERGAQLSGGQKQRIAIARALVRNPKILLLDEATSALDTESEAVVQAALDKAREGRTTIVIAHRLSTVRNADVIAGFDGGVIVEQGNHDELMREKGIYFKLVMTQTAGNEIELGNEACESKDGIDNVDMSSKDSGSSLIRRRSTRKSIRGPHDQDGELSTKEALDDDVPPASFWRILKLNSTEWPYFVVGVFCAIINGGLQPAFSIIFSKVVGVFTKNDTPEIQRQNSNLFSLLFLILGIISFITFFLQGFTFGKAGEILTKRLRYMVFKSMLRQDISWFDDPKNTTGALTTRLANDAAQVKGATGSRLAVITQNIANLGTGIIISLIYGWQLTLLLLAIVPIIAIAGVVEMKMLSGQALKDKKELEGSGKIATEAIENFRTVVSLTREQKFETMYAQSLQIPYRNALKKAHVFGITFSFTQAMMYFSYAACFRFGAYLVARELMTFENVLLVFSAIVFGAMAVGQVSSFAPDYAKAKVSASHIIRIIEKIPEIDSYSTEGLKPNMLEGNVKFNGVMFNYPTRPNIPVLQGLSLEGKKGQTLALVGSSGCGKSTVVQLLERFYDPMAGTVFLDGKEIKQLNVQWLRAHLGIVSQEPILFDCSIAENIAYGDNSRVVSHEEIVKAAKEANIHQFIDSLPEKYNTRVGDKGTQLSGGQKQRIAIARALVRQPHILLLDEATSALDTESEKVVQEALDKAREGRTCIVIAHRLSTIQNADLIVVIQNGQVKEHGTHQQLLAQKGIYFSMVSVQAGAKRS
Protocol: as §1

human BCRP = target: T3, human BCRP (Homo sapiens, UniProt Q9UNQ0); experiment: Bidirectional transport assay, efflux ratio in MDCKII-BCRP cells; conditions: pH 7.4
T3 sequence (Q9UNQ0 1-655): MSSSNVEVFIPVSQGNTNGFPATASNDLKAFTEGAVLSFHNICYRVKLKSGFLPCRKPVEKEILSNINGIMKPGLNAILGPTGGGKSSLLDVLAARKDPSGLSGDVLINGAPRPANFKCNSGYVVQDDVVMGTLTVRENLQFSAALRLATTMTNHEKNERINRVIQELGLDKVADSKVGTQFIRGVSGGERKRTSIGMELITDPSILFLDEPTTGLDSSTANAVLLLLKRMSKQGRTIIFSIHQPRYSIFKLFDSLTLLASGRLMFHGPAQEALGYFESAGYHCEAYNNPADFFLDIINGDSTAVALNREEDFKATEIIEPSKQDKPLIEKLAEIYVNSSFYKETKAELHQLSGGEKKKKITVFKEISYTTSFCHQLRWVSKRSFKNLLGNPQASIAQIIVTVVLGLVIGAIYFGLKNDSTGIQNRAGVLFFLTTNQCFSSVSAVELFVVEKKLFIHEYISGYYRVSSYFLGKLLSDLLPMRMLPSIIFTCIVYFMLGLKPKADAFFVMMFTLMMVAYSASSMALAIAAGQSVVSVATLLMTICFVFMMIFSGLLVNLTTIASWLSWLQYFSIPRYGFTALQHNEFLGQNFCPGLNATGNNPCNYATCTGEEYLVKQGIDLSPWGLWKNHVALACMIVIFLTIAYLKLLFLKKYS
Protocol: as §1

human MDR1 = human MDR1 (Homo sapiens, UniProt P08183); experiment: Bidirectional transport assay, efflux ratio in Abcb1KO-MDCKII hMDR1 cells; conditions: MDCK-MDR1, pH 7.4
Chain of human MDR1 (P08183 whole entry): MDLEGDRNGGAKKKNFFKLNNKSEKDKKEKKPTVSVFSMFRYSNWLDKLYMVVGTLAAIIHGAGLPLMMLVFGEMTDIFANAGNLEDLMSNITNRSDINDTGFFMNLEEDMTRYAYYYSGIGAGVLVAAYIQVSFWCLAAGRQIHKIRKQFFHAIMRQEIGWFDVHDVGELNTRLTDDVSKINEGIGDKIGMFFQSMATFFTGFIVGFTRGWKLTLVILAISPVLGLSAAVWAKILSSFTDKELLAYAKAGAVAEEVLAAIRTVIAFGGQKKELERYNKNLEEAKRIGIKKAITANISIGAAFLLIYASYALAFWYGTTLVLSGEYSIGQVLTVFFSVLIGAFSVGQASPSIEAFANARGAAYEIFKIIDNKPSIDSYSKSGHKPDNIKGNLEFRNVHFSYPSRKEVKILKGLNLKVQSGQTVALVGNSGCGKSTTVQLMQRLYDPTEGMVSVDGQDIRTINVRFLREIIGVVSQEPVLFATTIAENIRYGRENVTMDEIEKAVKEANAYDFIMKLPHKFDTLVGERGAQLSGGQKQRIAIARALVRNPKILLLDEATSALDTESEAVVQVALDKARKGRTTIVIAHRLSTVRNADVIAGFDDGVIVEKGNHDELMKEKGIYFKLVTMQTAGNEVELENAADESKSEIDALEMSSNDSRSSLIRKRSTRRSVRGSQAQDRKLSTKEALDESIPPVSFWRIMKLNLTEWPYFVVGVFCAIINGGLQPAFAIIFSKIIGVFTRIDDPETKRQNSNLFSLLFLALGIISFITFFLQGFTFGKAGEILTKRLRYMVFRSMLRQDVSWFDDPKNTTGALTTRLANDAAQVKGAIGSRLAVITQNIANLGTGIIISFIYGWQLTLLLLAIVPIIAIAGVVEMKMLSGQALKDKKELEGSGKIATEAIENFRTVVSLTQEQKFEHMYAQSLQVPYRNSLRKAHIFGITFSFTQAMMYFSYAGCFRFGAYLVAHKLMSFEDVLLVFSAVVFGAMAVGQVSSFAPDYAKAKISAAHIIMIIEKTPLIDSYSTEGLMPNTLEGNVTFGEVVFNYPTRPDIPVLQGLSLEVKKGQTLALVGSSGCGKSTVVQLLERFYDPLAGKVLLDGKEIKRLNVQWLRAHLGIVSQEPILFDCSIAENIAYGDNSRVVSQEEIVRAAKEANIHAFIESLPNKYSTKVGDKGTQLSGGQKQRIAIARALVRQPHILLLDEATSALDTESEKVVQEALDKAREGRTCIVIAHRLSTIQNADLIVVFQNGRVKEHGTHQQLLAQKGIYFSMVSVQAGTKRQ
Protocol: as §1

cynomolgus monkey Mdr1 [4] = target: T4, cynomolgus monkey Mdr1 (Macaca fascicularis, UniProt Q8HZQ6); experiment: Bidirectional transport assay, efflux ratio in Abcb1KO-MDCKII cyMDR1 cells; conditions: pH 7.4
T4 sequence (Q8HZQ6 1-1283): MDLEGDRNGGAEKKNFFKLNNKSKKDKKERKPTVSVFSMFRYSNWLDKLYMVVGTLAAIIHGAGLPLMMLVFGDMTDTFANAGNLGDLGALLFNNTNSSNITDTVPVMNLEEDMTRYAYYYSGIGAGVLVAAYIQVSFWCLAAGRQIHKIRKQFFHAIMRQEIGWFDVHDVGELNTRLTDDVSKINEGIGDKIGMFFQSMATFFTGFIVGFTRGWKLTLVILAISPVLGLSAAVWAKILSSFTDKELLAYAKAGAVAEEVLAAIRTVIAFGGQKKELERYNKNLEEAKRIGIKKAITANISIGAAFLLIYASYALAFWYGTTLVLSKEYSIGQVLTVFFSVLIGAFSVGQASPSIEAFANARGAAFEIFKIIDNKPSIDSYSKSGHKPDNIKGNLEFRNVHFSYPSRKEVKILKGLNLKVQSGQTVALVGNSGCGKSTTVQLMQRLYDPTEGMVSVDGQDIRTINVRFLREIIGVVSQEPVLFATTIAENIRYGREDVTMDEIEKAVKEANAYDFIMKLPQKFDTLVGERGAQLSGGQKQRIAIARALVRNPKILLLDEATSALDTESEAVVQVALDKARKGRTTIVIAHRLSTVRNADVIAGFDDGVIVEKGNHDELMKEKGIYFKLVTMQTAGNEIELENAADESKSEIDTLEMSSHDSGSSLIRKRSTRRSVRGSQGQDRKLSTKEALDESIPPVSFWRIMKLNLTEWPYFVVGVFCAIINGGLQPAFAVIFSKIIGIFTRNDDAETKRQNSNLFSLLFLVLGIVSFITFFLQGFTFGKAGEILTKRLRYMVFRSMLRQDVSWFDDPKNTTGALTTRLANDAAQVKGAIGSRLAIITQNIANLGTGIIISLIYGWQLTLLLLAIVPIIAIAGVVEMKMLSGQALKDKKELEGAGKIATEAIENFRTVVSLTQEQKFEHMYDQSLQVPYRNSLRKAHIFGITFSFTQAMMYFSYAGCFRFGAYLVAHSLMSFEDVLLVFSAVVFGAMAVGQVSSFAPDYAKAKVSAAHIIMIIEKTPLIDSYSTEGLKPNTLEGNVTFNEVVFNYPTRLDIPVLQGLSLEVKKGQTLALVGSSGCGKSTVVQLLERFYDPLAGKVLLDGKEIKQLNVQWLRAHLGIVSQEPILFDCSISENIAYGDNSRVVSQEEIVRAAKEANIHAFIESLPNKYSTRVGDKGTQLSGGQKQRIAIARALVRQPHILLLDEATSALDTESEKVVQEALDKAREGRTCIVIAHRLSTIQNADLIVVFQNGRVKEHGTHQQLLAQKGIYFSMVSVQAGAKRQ
Protocol: as §1

hMDR1 and hBCRP = experiment: Brain permeability classification from total ER of hMDR1 and hBCRP against in vivo rodent Kp,uu,brain; conditions: total ER cut-off 3; in vivo rodent Kp,uu,brain cut-off 0.3
Protocol: MDR1 and/or BCRP substrate properties were investigated by binary classification analysis on CNS+ and CNS− compounds. […] True negative (TN), where there was no efflux and the CNS+ compound crossed the BBB. […] The sensitivity and specificity of the estimation of brain penetration along with MDR1 and BCRP activity were calculated from predictive performance metrics.
First, NET ER was calculated and used for human predictions, (2) NET ER=ER(−inh)[…]ER(+inh) where ER(−inh) is ER in the absence of inhibitor, and ER(+inh) is ER in the presence of inhibitor, for hMDR1 (ERMDR1) or hBCRP (ERBCRP).
To identify the correlation between the in vivo rodent Kp,uu,brain and ERs, 58 compounds with known Kp,uu,brain were selected. […] Predictive performance metrics were calculated to show the efficacy of the established cell lines in BBB permeability classification (Table 1). […]
Subsequently, for a more reliable prediction of brain penetration, data generated in the hBCRP cell line were included in the analysis. hBCRP assay conditions and evaluations were identical to that of MDR1 cell lines, which allowed proper comparisons (Figure 2E,F). Total ER was calculated by combining ERs determined in BCRP and hMDR1 cell lines based on Equation (3), with an ER cut-off of 3. […] Eventually, total ERs were also assessed with the Relative Expression Factor (REF) (Equation (4); Figure 2E,F). […]

mouse Mdr1a [5] = target: T1, mouse Mdr1a; experiment: Inhibition of 3H-digoxin or 3H-quinidine bidirectional transport in mMDR1 cells; format: cell-based; design: mouse Mdr1a (NM_011076.3); expressed in transfected cells; host or cells: Abcb1KO-MDCKII (canine kidney, endogenous Abcb1 knocked out), transduced, single-cell clone; conditions: IC50 from ER
rat Mdr1a [6] = target: T2, rat Mdr1a; experiment: Inhibition of 3H-digoxin or 3H-quinidine bidirectional transport in rMDR1 cells; format: cell-based; design: rat Mdr1a (NM_133401.1); expressed in transfected cells; host or cells: Abcb1KO-MDCKII (canine kidney, endogenous Abcb1 knocked out), transduced, single-cell clone; conditions: IC50 from ER
cynomolgus monkey Mdr1 [7] = target: T4, cynomolgus monkey Mdr1; experiment: Inhibition of 3H-digoxin or 3H-quinidine bidirectional transport in cyMDR1 cells; conditions: Inhibition of quinidine transport IC50±SD, cyMDR1, probe 3H-quinidine 0.1 µM, 60 min; IC50 from ER
cynomolgus monkey Mdr1 [8] = target: T4, cynomolgus monkey Mdr1; experiment: cell-based

T1 sequence (P21447 whole entry): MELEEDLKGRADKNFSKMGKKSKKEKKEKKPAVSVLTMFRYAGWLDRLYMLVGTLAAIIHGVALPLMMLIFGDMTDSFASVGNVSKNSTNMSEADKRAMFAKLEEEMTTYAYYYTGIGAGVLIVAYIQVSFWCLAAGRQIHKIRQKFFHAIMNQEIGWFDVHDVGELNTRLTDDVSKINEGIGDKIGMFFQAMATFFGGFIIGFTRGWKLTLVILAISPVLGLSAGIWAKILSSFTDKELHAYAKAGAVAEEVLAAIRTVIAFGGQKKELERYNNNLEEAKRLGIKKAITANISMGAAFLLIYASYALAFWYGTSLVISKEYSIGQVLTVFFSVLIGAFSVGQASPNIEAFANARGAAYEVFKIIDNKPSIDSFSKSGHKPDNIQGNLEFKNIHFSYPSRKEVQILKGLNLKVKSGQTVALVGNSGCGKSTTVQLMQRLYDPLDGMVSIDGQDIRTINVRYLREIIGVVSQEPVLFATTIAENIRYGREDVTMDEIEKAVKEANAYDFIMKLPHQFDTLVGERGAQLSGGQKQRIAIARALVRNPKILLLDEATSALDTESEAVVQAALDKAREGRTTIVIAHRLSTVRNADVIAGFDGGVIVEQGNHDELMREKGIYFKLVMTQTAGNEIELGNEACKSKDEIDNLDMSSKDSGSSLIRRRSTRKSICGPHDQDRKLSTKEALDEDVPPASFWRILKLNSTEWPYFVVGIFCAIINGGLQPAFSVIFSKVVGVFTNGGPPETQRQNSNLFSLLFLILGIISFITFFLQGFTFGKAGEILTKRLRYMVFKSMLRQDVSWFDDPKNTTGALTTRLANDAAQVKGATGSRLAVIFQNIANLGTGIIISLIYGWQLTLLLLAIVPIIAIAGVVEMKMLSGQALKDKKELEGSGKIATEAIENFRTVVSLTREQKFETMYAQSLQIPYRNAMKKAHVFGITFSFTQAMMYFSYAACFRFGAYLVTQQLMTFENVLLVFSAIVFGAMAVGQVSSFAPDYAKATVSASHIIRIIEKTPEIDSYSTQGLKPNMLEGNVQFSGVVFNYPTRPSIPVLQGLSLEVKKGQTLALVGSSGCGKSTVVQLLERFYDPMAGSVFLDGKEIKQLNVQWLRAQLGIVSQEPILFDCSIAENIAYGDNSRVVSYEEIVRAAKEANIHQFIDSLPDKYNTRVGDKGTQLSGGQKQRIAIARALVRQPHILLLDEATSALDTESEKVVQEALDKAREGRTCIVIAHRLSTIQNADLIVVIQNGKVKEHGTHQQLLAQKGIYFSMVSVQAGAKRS

CCN(CC)CC(=O)Nc1c(C)cccc1C [Lidocaine]
efflux ratio at 120 min, 1 µM (mouse Mdr1a [1]): 0.87 ± 0.06
efflux ratio at 120 min, 1 µM [2]: 0.84 ± 0.02
efflux ratio at 120 min, 1 µM (rat Mdr1a [3]): 0.93 ± 0.03
efflux ratio at 120 min, 1 µM (human BCRP): 0.8 ± 0.04
efflux ratio at 120 min, 1 µM (human MDR1): 0.91 ± 0.08
efflux ratio at 120 min, 1 µM (cynomolgus monkey Mdr1 [4]): 0.95 ± 0.04

O=C(O)COCCN1CCN(C(c2ccccc2)c2ccc(Cl)cc2)CC1 (stereo not shown) [Cetirizine]
efflux ratio at 120 min, 1 µM [2]: 0.75 ± 0.03
efflux ratio at 120 min, 1 µM (human BCRP): 2.43 ± 0.14
efflux ratio at 120 min, 1 µM (human MDR1): 17.7 ± 0.63
efflux ratio at 120 min, 1 µM (cynomolgus monkey Mdr1 [4]): 4.72 ± 0.21

CCCCc1oc2ccccc2c1C(=O)c1cc(I)c(OCCN(CC)CC)c(I)c1 [Amiodarone]
efflux ratio at 120 min, 1 µM (mouse Mdr1a [1]): 0.41 ± 0.07
efflux ratio at 120 min, 1 µM [2]: 0.36 ± 0.04
efflux ratio at 120 min, 1 µM (rat Mdr1a [3]): 0.41 ± 0.05
efflux ratio at 120 min, 1 µM (human BCRP): 3.13 ± 1.74
efflux ratio at 120 min, 1 µM (human MDR1): 0.71 ± 0.09
efflux ratio at 120 min, 1 µM (cynomolgus monkey Mdr1 [4]): 2.51 ± 0.26

CC(C)NCC(O)COc1ccc(CC(N)=O)cc1 (stereo not shown) [Atenolol]
CNS penetration classification based on total ER (hMDR1 + hBCRP) (hMDR1 and hBCRP): false negatives
efflux ratio at 120 min, 1 µM (mouse Mdr1a [1]): 1.37 ± 0.19
efflux ratio at 120 min, 1 µM (rat Mdr1a [3]): 1.22 ± 0.16
efflux ratio at 120 min, 1 µM (human BCRP): 1.34 ± 0.12
efflux ratio at 120 min, 1 µM (human MDR1): 1.8 ± 0.2
efflux ratio at 120 min, 1 µM (cynomolgus monkey Mdr1 [4]): 1.17 ± 0.08

CCCNCC(O)COc1ccccc1C(=O)CCc1ccccc1 (stereo not shown) [Propafenone]
IC50 (mouse Mdr1a [5]; Inhibition of digoxin transport IC50±SD, mMDR1, probe 3H-digoxin 1 µM, 120 min): 21400 ± 1850 nM
IC50 (mouse Mdr1a [5]; Inhibition of quinidine transport IC50±SD, mMDR1, probe 3H-quinidine 1 µM, 60 min): 1990 ± 1070 nM
IC50 (rat Mdr1a [6]; Inhibition of digoxin transport IC50±SD, rMDR1, probe 3H-digoxin 1 µM, 120 min): 6230 ± 1150 nM
IC50 (rat Mdr1a [6]; Inhibition of quinidine transport IC50±SD, rMDR1, probe 3H-quinidine 1 µM, 30 min): 1710 ± 170 nM
IC50 (cynomolgus monkey Mdr1 [7]): 1700 ± 800 nM
IC50 (cynomolgus monkey Mdr1 [8]): 300 ± 170 nM
